# Assay results from the supplement of paper PMC8728848.
# The other results are listed elsewhere or left out.
# Experiments:
# Assay in all cases: glycan array binding signal (z-score within array); higher = stronger binding
# Conditions in all cases: glycan notation: IUPAC condensed, linker removed
# [1] = biological target: Fuc(a1-3)[Gal(b1-4)]GlcNAc(b1-3)Gal(b1-4)[Fuc(a1-3)]GlcNAc(b1-3)Gal(b1-4)[Fuc(a1-3)]GlcNAc
# How it was run: (§1)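 The binding signal is a Z-score computed within each array. Data were drawn from 3228 arrays in the Consortium for Functional Glycomics database, restricted to those with a known protein sequence. Scores were averaged over arrays of the same protein sequence at different concentrations or buffers, and over linkers, and negative values can be taken as non-binding.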
# [2] = biological target: Fuc(a1-3)[Gal(b1-4)]GlcNAc(b1-3)GalNAc
# How it was run: as §1
# [3] = biological target: Fuc(a1-3)[Gal(b1-4)]GlcNAc(b1-4)Gal(b1-4)[Fuc(a1-3)]GlcNAc
# How it was run: as §1
# [4] = biological target: Fuc(a1-3)[Gal(b1-4)]GlcNAc(b1-4)Gal(b1-4)[Fuc(a1-3)]GlcNAc(b1-4)Gal(b1-4)[Fuc(a1-3)]GlcNAc
# How it was run: as §1
# [5] = biological target: Fuc(a1-3)[Gal(b1-4)]GlcNAc(b1-6)GalNAc
# How it was run: as §1
# [6] = biological target: Fuc(a1-3)[Gal(b1-4)]GlcNAc(b1-6)[Gal(b1-3)GlcNAc(b1-3)]Gal(b1-4)Glc
# How it was run: as §1
# [7] = biological target: Fuc(a1-3)[Gal(b1-4)]GlcNAc6S
# How it was run: as §1
# [8] = biological target: Fuc(a1-3)[Gal3S(b1-4)]Glc
# How it was run: as §1
# [9] = biological target: Fuc(a1-3)[Gal3S(b1-4)]Glc6S
# How it was run: as §1
# [10] = biological target: Fuc(a1-3)[Gal3S(b1-4)]GlcNAc
# How it was run: as §1
# [11] = biological target: Fuc(a1-3)[Gal3S(b1-4)]GlcNAc6S
# How it was run: as §1
# [12] = biological target: Fuc(a1-3)[GalNAc(b1-4)]Gal(b1-4)GlcNAc
# How it was run: as §1
# [13] = biological target: Fuc(a1-3)[GalNAc(b1-4)]GlcNAc
# How it was run: as §1
# [14] = biological target: Fuc(a1-3)[GalNAc(b1-4)]GlcNAc6S
# How it was run: as §1
# Fuc(a1-4)GlcNAc = biological target: Fuc(a1-4)GlcNAc
# How it was run: as §1
# Fuc(b1-3)GlcNAc = biological target: Fuc(b1-3)GlcNAc
# How it was run: as §1
# Gal(a1-2)Gal = biological target: Gal(a1-2)Gal
# How it was run: as §1
# Gal(a1-3)Gal = biological target: Gal(a1-3)Gal
# How it was run: as §1
# Gal(a1-3)Gal(b1-3)Glc = biological target: Gal(a1-3)Gal(b1-3)Glc
# How it was run: as §1
# Gal(a1-3)Gal(b1-3)GlcNAc = biological target: Gal(a1-3)Gal(b1-3)GlcNAc
# How it was run: as §1
# [15] = biological target: Gal(a1-3)Gal(b1-3)GlcNAc(b1-2)Man
# How it was run: as §1
# [16] = biological target: Gal(a1-3)Gal(b1-3)GlcNAc(b1-2)Man(a1-3)[Gal(a1-3)Gal(b1-3)GlcNAc(b1-2)Man(a1-6)]Man(b1-4)GlcNAc(b1-4)GlcNAc
# How it was run: as §1
# [17] = biological target: Gal(a1-3)Gal(b1-3)GlcNAc(b1-3)GalNAc
# How it was run: as §1
# [18] = biological target: Gal(a1-3)Gal(b1-3)GlcNAc(b1-6)GalNAc
# How it was run: as §1
# [19] = biological target: Gal(a1-3)Gal(b1-3)[Fuc(a1-4)]GlcNAc(b1-2)Man(a1-3)[Gal(a1-3)Gal(b1-3)[Fuc(a1-4)]GlcNAc(b1-2)Man(a1-6)]Man(b1-4)GlcNAc(b1-4)GlcNAc
# How it was run: as §1
# Gal(a1-3)Gal(b1-4)Glc = biological target: Gal(a1-3)Gal(b1-4)Glc
# How it was run: as §1
# Gal(a1-3)Gal(b1-4)GlcNAc = biological target: Gal(a1-3)Gal(b1-4)GlcNAc
# How it was run: as §1
# [20] = biological target: Gal(a1-3)Gal(b1-4)GlcNAc(b1-2)Man
# How it was run: as §1
# [21] = biological target: Gal(a1-3)Gal(b1-4)GlcNAc(b1-2)Man(a1-3)[Gal(a1-3)Gal(b1-4)GlcNAc(b1-2)Man(a1-6)]Man(b1-4)GlcNAc(b1-4)GlcNAc
# How it was run: as §1
# [22] = biological target: Gal(a1-3)Gal(b1-4)GlcNAc(b1-3)GalNAc
# How it was run: as §1
# [23] = biological target: Gal(a1-3)Gal(b1-4)GlcNAc(b1-6)GalNAc
# How it was run: as §1
# [24] = biological target: Gal(a1-3)Gal(b1-4)[Fuc(a1-3)]GalNAc
# How it was run: as §1
# [25] = biological target: Gal(a1-3)Gal(b1-4)[Fuc(a1-3)]GlcNAc
# How it was run: as §1
# [26] = biological target: Gal(a1-3)Gal(b1-4)[Fuc(a1-3)]GlcNAc(b1-2)Man(a1-3)[Gal(a1-3)Gal(b1-4)[Fuc(a1-3)]GlcNAc(b1-2)Man(a1-6)]Man(b1-4)GlcNAc(b1-4)GlcNAc
# How it was run: as §1
# Gal(a1-3)GalNAc = biological target: Gal(a1-3)GalNAc
# How it was run: as §1
# Gal(a1-3)GlcNAc = biological target: Gal(a1-3)GlcNAc
# How it was run: as §1
# [27] = biological target: Gal(a1-3)[Gal(a1-4)]Gal(b1-4)GlcNAc
# How it was run: as §1
# [28] = biological target: Gal(a1-4)Gal(b1-3)GlcNAc(b1-2)Man(a1-3)[Gal(a1-4)Gal(b1-3)GlcNAc(b1-2)Man(a1-6)]Man(b1-4)GlcNAc(b1-4)GlcNAc
# How it was run: as §1
# Gal(a1-4)Gal(b1-4)Gal = biological target: Gal(a1-4)Gal(b1-4)Gal
# How it was run: as §1
# Gal(a1-4)Gal(b1-4)GalNAc = biological target: Gal(a1-4)Gal(b1-4)GalNAc
# How it was run: as §1
# Gal(a1-4)Gal(b1-4)Glc = biological target: Gal(a1-4)Gal(b1-4)Glc
# How it was run: as §1
# Gal(a1-4)Gal(b1-4)GlcNAc = biological target: Gal(a1-4)Gal(b1-4)GlcNAc
# How it was run: as §1
# [29] = biological target: Gal(a1-4)Gal(b1-4)GlcNAc(b1-2)Man(a1-3)[Gal(a1-4)Gal(b1-4)GlcNAc(b1-2)Man(a1-6)]Man(b1-4)GlcNAc(b1-4)GlcNAc
# How it was run: as §1
# [30] = biological target: Gal(a1-4)Gal(b1-4)GlcNAc(b1-3)Gal(b1-4)Glc
# How it was run: as §1
# Gal(a1-4)GlcNAc = biological target: Gal(a1-4)GlcNAc
# How it was run: as §1
binder,measurement,setting,value
Epa15 (Candida glabrata) (protein) MGSSHHHHHHSSGLVPRGSHMASDPTTFPLGCSPEFTKTKKGLSMELYRYDYLPPGSYPCWDSAYLNPSYPRTGYKAKKLIATVDGVSGDINFKFNPKFGCKAIPDYLPSNFNYHEPITITNFTMILYGYFMPKTTAFHTFYVTADDLLFMNFGAGNAFDCCRREETADKFGNYAAYSVWGKKSLKNELTVYLHTGVYYPIRLFYNNRDYIAQLDIRFKTEHSNAIITNFTDYFYSVDDSSLGCPGLI,glycan array binding signal (z-score),[1],-0.506
same,glycan array binding signal (z-score),[2],0.37
same,glycan array binding signal (z-score),[3],-0.271
same,glycan array binding signal (z-score),[4],-0.286
same,glycan array binding signal (z-score),[5],0.233
same,glycan array binding signal (z-score),[6],-0.364
same,glycan array binding signal (z-score),[7],0.326
same,glycan array binding signal (z-score),[8],-0.171
same,glycan array binding signal (z-score),[9],-0.279
same,glycan array binding signal (z-score),[10],-0.351
same,glycan array binding signal (z-score),[11],0.299
same,glycan array binding signal (z-score),[12],-0.279
same,glycan array binding signal (z-score),[13],-0.2
same,glycan array binding signal (z-score),[14],0.205
same,glycan array binding signal (z-score),Fuc(a1-4)GlcNAc,-0.396
same,glycan array binding signal (z-score),Fuc(b1-3)GlcNAc,-0.493
same,glycan array binding signal (z-score),Gal(a1-2)Gal,-0.455
same,glycan array binding signal (z-score),Gal(a1-3)Gal,0.122
same,glycan array binding signal (z-score),Gal(a1-3)Gal(b1-3)Glc,-0.283
same,glycan array binding signal (z-score),Gal(a1-3)Gal(b1-3)GlcNAc,-0.097
same,glycan array binding signal (z-score),[15],1.8
same,glycan array binding signal (z-score),[16],0.477
same,glycan array binding signal (z-score),[17],0.478
same,glycan array binding signal (z-score),[18],0.468
same,glycan array binding signal (z-score),[19],1.85
same,glycan array binding signal (z-score),Gal(a1-3)Gal(b1-4)Glc,0.031
same,glycan array binding signal (z-score),Gal(a1-3)Gal(b1-4)GlcNAc,0.059
same,glycan array binding signal (z-score),[20],0.183
same,glycan array binding signal (z-score),[21],1.1
same,glycan array binding signal (z-score),[22],-0.396
same,glycan array binding signal (z-score),[23],-0.059
same,glycan array binding signal (z-score),[24],-0.284
same,glycan array binding signal (z-score),[25],0.346
same,glycan array binding signal (z-score),[26],1.08
same,glycan array binding signal (z-score),Gal(a1-3)GalNAc,0.105
same,glycan array binding signal (z-score),Gal(a1-3)GlcNAc,-0.278
same,glycan array binding signal (z-score),[27],0.6
same,glycan array binding signal (z-score),[28],0.999
same,glycan array binding signal (z-score),Gal(a1-4)Gal(b1-4)Gal,-0.273
same,glycan array binding signal (z-score),Gal(a1-4)Gal(b1-4)GalNAc,-0.255
same,glycan array binding signal (z-score),Gal(a1-4)Gal(b1-4)Glc,0.168
same,glycan array binding signal (z-score),Gal(a1-4)Gal(b1-4)GlcNAc,0.525
same,glycan array binding signal (z-score),[29],-0.001
same,glycan array binding signal (z-score),[30],-0.118
same,glycan array binding signal (z-score),Gal(a1-4)GlcNAc,0.35
